From publication PMC9574860, “Chemical Toolkit for PARK7: Potent, Selective, and High-Throughput” (Journal of Medicinal Chemistry, 2022)
About 400 (5.1%) of roughly 7,900 compounds showed an effect of 50% or more. This is one part of the list.

Biological target: Parkinson's disease protein 7 (PARK7/DJ1) (human, UniProt Q99497)
Assay: primary screen, percent inhibition; read as competition with a fluorescent probe by fluorescence polarization; higher = more effect of the substance
Conditions: 100 µM
In short: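 Covalent fragments at 100 μM final were incubated 2 h with 0.2 μM PARK7, then 20 nM probe JYQ-107 added for a further 2 h. Fluorescence polarization read at 480/520 nm; relative FP loss versus reference controls gave remaining enzyme activity.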

Sequence of Parkinson's disease protein 7 (PARK7/DJ1) (Q99497 whole entry, looked up): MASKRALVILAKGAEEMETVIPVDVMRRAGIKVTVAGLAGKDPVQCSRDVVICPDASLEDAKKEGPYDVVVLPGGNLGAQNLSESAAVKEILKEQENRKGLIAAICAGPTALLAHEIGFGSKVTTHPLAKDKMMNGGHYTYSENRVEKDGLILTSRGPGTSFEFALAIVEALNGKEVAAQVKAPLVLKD

SMILES	Inhibition % [%]
C=CC(=O)NCc1cc2n(n1)CCCO2	18.2
C=CC(=O)NCC1CCC2(CCOCC2)C1O (stereo not shown)	10.5
O=S1(=O)C=CC(Nc2ccc(F)cc2)C1 (stereo not shown)	13.6
COc1ccc(N(C#N)CC(=O)NC2CC2)cc1Cl	6.85
Cc1cc(C#N)cc(C(=O)O)n1	4.24
O=C(CCl)Nc1cccc(C(=O)NC2CC2)c1	19.3
O=C(NCCN1CCOCC1)Oc1ccccc1	4.01
CCOc1ccc(S(=O)(=O)n2cccn2)cc1CC	7.29
Cn1cc(NS(=O)(=O)c2cccc(S(=O)(=O)F)c2)ccc1=O	103
CC1(C)CCCN1c1ccc(S(=O)(=O)F)cn1	1.78
CC(C)c1ccc(CCNC(=O)CCl)cc1	22
CC1(C)SC(=O)N(CC2(O)CCCCC2)C1=O	9.19
O=S(=O)(F)c1ccc(S(=O)(=O)Nc2cccc(F)n2)cc1	54.7
Cc1ccc(O)c(C(=O)c2cnn(C(N)=O)c2)c1	6.48
CC1(C)OB(c2ccc(SC(F)(F)F)nc2)OC1(C)C	4.22
COC(=O)c1ccc(CNC(=O)CCl)cc1	12.2
N#CC(=Cc1ccc(O)cc1)C(=O)NCc1ccco1	13.3
CC1(C)OB(c2ccc3c(c2)CCCNC3=O)OC1(C)C	23.6
O=C1SCCN1CCC(=O)N1CCOc2ccccc21	4.72
C=CC(=O)N1CCC(c2nc(C(=O)O)cs2)CC1	3.5
Cc1ccc(S(=O)(=O)NC(=O)CCl)cc1	12.1
COC(=O)C1CC(S(=O)(=O)F)CN1C(=O)C1CCOCC1 (stereo not shown)	9.64
Cc1ccc(B2OC(C)(C)C(C)(C)O2)cn1	2.59
CNC(=O)C1CCN(C(=O)CCl)CC1	8.41
C=CC(=O)N1CCOC(C)(CC)C1 (stereo not shown)	0.755

SMILES	Inhibition % [%]
Cc1ccc([N+](=O)[O-])cc1NC(=O)CCl	18.4
O=C1CCC(=O)N1CCN1CCSC2(CCCCC2)C1	6.74
C=CC(=O)Nc1cnc(C)s1	16.4
CCc1nc(C)cn1S(=O)(=O)c1ccc(OC)c(C)c1	-0.95
C=CC(=O)NCC1CCC(F)CC1 (stereo not shown)	1.56
N#CC(=Cc1ccc(O)cc1)C(N)=S	5.65
C=CC(=O)N1CC(C)OC2(CCOCC2)C1 (stereo not shown)	10.9
CC1(C)OB(c2ccc3c(c2)C(=O)NC3)OC1(C)C	7.34
O=C(NCc1ncccc1F)c1cccnc1S	21
CC1(C)OB(c2cccc(CN3CCOCC3)c2)OC1(C)C.Cl	25.8
C=CC(=O)N1CCCC1c1ccccc1Cl (stereo not shown)	7.15
Cc1cc(C)n(-c2ccc(C#N)nc2)n1	2.91
Cc1cccc(NC(=O)N[C@@H]2COC(=O)C2)n1	11.7
N#Cc1ncc(C(F)(F)F)cc1N	2.37
COc1cccc(N2CCN(C(=O)n3ccnc3)CC2)c1	8.28
Cc1nn(C)c(C)c1NS(=O)(=O)C=Cc1ccccc1	10.9
C=CC(=O)N(C)C1CCN(S(C)(=O)=O)CC1	5.7
C=CS(=O)(=O)c1ccccn1	3.22
CC(=O)N(C)c1cccc(NC2CC(C)OC2=O)c1 (stereo not shown)	32.1
O=C(CC1COC(=O)C1)Nc1ccc2nc(S)[nH]c2c1 (stereo not shown)	2.61
C=CC(=O)NC1CCN(c2ccc(F)c(Cl)c2)C1=O (stereo not shown)	8.7
CS(=O)(=O)C(C#N)=Cc1ccccc1Cl	5.36
N#Cc1ncc(C(F)(F)F)cc1Cl	1.83
COC(=O)c1ccc(B2OC(C)(C)C(C)(C)O2)c(O)c1	6.79
CN(Cc1cccs1)C(=O)CCl	36.6

SMILES	Inhibition % [%]
N#CC(=Cc1ccncc1)c1ccccn1	4.53
O=C(CCl)c1cc2c3c(c1)CC(=O)N3CCC2	21.1
C=CC(=O)N1CCCC1c1ccc(C)s1 (stereo not shown)	5.49
O=C(CCCl)Nc1ccc2c(c1)OCO2	13.1
O=C(CCl)NC(c1ccccc1)C1CC1 (stereo not shown)	-0.171
Cc1nnnn1CCCCl	13.3
Cn1cc(C=CC(=O)N2CCc3ccccc32)cn1	3.76
C=CC(=O)Nc1ccc2nc(C(F)(F)F)oc2c1	20.1
C=CC(=O)NC1CCCn2nccc21 (stereo not shown)	6.55
Cc1csc2nc(S)n(C)c(=O)c12	2.7
N#Cc1c(NC(=O)c2ccncc2)nc2n1CCS2	15
CC1CCCC(NC(=O)CCl)C1C (stereo not shown)	10.4
C=CC(=O)Nc1ccc([N+](=O)[O-])cc1	9.19
C=CC(=O)NC1(c2ccc(S(C)(=O)=O)cc2)CCOC1 (stereo not shown)	3.23
COc1ccccc1COCC1CO1 (stereo not shown)	4.72
Cc1nn(C)c(C)c1C=CC(=O)N1CCC(C(N)=O)CC1	10.7
CN(C)C(CNC(=O)CCl)c1ccccc1.Cl (stereo not shown)	5.25
C=CC(=O)N1CCN(c2ccccc2F)CC1	7.53
CNC(=O)C(C#N)=Cc1cccc(Oc2ccccc2)c1	13.7
NC(=O)C1CCN(C(=O)CCl)CC1	11.7
Cn1nncc1B1OC(C)(C)C(C)(C)O1	6.79
O=C(CCl)NCc1cnn(-c2ccccc2)c1	4.13
Cc1ccc(F)c(N(C#N)CCCO)c1	4.94
CC1CN(C2CCOC2=O)CCN1c1nccs1 (stereo not shown)	19.4
O=C1CCc2cc(C(=O)CCl)ccc2N1	52.8

SMILES	Inhibition % [%]
O=C(CCl)Nc1ccc(Br)cc1	70.1
Cc1cc(C)n(CC2CCCN2C2CC(C)OC2=O)n1 (stereo not shown)	-2.43
CCc1cccc2c(C=C(C#N)C(=O)NC)c[nH]c12	10.4
Cc1cc(C)n(S(=O)(=O)c2ccc(Cl)cc2Cl)n1	29.5
COc1cc(C)c(Cl)cc1S(=O)(=O)n1cccn1	8.92
O=c1c2ccccc2nc(S)n1CCC1=CCOCC1	6.89
OB(O)c1ccc(OC2CCOC2)cc1 (stereo not shown)	10.3
CCCC(=O)Nc1ccc(C(=O)CCl)cc1	5.21
Cc1nn(C)c(C)c1C=CC(=O)N1CCCC(C)C1 (stereo not shown)	7.8
Cc1ccc(C(=O)CCl)s1	28.1
C=CC(=O)Nc1ccc2c(c1)N(C)CCO2	52.4
C=CC(=O)N1CCCc2cc(C(=O)O)ccc21	7.5
O=C(NCCC(=O)N1CCCCC1)c1cc(S(=O)(=O)F)c[nH]1	5.43
C=CC(=O)N1CCC2(CC1)C(C)=Nc1ccccc12	10
C=CC(=O)Nc1ccc(N2CCCC2)cc1C	6.37
C=CC(=O)NCCCC(=O)N1CCc2sccc2C1	10.7
C=CC(=O)Nc1cc(OC(F)F)n(C)n1	2.26
CNc1ccc(B2OC(C)(C)C(C)(C)O2)cc1	12.5
NC(=O)CN1Cc2ccccc2OC1=O	9.81
O=C(CCl)Nc1cc2ccccc2cc1C(=O)O	66.3
CC1CCCCN1C(=O)C=Cc1cnc2ccccc2n1 (stereo not shown)	6.48
O=C(CCl)NC(c1ccc(F)cc1)c1cccs1 (stereo not shown)	6.01
C=CS(=O)(=O)c1ccc(C#N)cn1	1.18
C=CC(=O)NCC1CCC2(CC1)CC2	2.8
C=CC(=O)NC1(c2cccc(Cl)c2)CC1	8.64

SMILES	Inhibition % [%]
CC1(C)OB(c2cnc3c(c2)CC(=O)N3)OC1(C)C	18.8
Cc1ncsc1C=C(C#N)C(=O)NC(C)c1ccccc1 (stereo not shown)	28
CCC1(c2ccccc2)NC(=O)N(NC(=O)CCl)C1=O (stereo not shown)	6.48
O=C(CCl)c1c[nH]c(C(=O)N2CCCC2)c1	1.55
N=C1NC(=O)SC1=Cc1ccc(Cl)cc1	-2.92
CC1(C)OB(c2cc3cccnc3s2)OC1(C)C	3.67
CC1CC(N2CCN(C(=O)c3ccco3)CC2)C(=O)O1 (stereo not shown)	2.84
Cc1csc(C(C#N)=Cc2cccnc2)n1	3.31
N#CC(=Cc1ccc(-n2cncn2)cc1)c1ccccn1	18.7
O=S(=O)(F)c1ccc(Cl)cc1	27
N#CC(=Cc1ccco1)C(N)=S	4.62
Cl.O=C(CN1CCN(C(=O)CCl)CC1)Nc1ccc(F)cc1	29.5
C=CC(=O)NC1CSCC1C (stereo not shown)	15.9
C=CC(=O)N1CCS(=O)(=O)C2CCCC21 (stereo not shown)	9.67
CC(C)(C)c1ccccc1NC(=O)Cn1cnc(C#N)n1	7.34
O=C1c2ccccc2C(=O)N1CC1CO1 (stereo not shown)	3.59
C=CC(=O)Nc1cccc(-c2ccc3c(c2)OCCO3)n1	10.5
O=C1CC2(CCNCC2)N1	3.72
CC(=O)NC1CCCN(C(=O)CCl)C1 (stereo not shown)	17.8
Clc1ccc(OCC2CO2)cc1Cl (stereo not shown)	7.16
C=CC(=O)N1CCC(OC2CCOC2)CC1 (stereo not shown)	3.79
C=CC(=O)N1CCCC(Oc2ccc(Cl)cn2)C1 (stereo not shown)	6.49
Cc1cc(C)n2nc(SCC3CCC(=O)O3)nc2n1 (stereo not shown)	8.44
Cc1cnc(C#N)s1	4.36
